Earlier results in US20090156668A1, “Ginkgolide Compounds, Compositions, And Extracts, And Uses Thereof” (priority 2004, published 2009).

Settings: solutions with pH>7; cited from earlier work

## CC(C)(C)[C@]1(O)CC2OC(=O)CC23C(=O)OC2OC(=O)[C@H](O)C231 (stereo partly shown) [BB, bilobalide]
  stability in solution: instability
